Results as given in the supplement of paper PMC10126150.
Sequences with one replicate were seen in a single cluster, so their values are uncertain.

System: ATP
Assay: switch fluorescence ratio, 500 uM ATP over buffer (Cy3 cluster intensity, sum of 5 cycles each) (fold (ratio)); higher = stronger signal-on switching upon ATP binding; sequences stand for … in TCGTCGGCAGCGTCAGATGTGTATAAGAGACAGTTTTTTTTTTTTTTTTTTTTTTTTT…TC
Conditions: aptamer strand: ATP DNA aptamer (quencher-CACCTGGGGGAGTATTGCGGAGGAAGG + anchor), 100 nM annealed; ATP concentration: 500 uM; one replicate
Outline: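 The quencher-labelled ATP aptamer, at 100 nM, was annealed to Cy3-labelled switching-strand clusters on a modified Illumina MiSeq flow-cell. The clusters were imaged in selection buffer, then after 15 min with 500 uM ATP at 22 °C, and this buffer/ATP cycle ran five times with NaOH stripping and re-annealing between runs. Per-cluster fluorescence ratios, summed target-cycle over summed buffer-cycle Cy3 intensity, were averaged per switch-domain sequence. Clusters outside 100-1000 RFU were excluded.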
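Note: ATP exposure 15 min at 22 °C before imaging.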

Sequence	switch fluorescence ratio
AAAAAACACT	1
AAAAAATCCG	1.05
AAAAAATTGA	1.01
AAAAACGTAC	1.81
AAAAACGTTT	1.01
AAAAAGGGCT	1.03
AAAAATCCGA	1
AAAACAATGC	1.62
AAAACAGTTA	0.969
AAAACATAGG	1.05
AAAACCGCCA	1.46
AAAACCGGTT	1.02
AAAACGGTTT	1.01
AAAACGTAAT	1.12
AAAACTCCCG	1.08
AAAAGAAATT	1.04
AAAAGACCCC	1.14
AAAAGAGCAG	1.02
AAAAGCCCTA	0.959
AAAAGCCGGA	1.08
AAAAGCCTAC	1.11
AAAAGCGAGA	0.972
AAAAGGCAGA	0.979
AAAAGGCAGG	0.992
AAAAGGCGT	1.01
AAAAGGCTCG	1.02

Sequence	switch fluorescence ratio
AAAAGGGTCA	0.995
AAAAGGTGTT	1
AAAAGTCTT	0.975
AAAAGTGTGA	1.01
AAAATAATCG	1.02
AAAATACGCA	2.54
AAAATCTCT	0.99
AAAATCTGAG	1.09
AAAATGATGT	0.981
AAAATGGAAC	1.03
AAAATTCCAG	0.993
AAAATTTCG	0.997
AAACACGGCA	1.12
AAACAGCAAG	1.05
AAACAGCTTT	0.953
AAACATGTTC	0.991
AAACCACTGC	1.05
AAACCCGAGA	1.01
AAACCCGTCA	0.991
AAACCCTTGC	2.14
AAACCGGCGT	1.02
AAACCGTATT	1.13
AAACCGTCCA	1.46
AAACCTAGTC	1.15
AAACCTCACT	1.32
AAACCTGTGA	1.13

Sequence	switch fluorescence ratio
AAACGAGGCA	1.03
AAACGATATA	1.01
AAACGCACG	1.4
AAACGCGCGC	1.03
AAACGCGGCT	1.03
AAACGGGCAA	1.05
AAACGTAAGG	1.02
AAACGTCTAC	1.2
AAACGTGATG	1
AAACTAATAG	1.02
AAACTATCGG	1.02
AAACTATGCC	1.06
AAACTATTGG	0.968
AAACTCAATC	1.09
AAACTCATGT	1.07
AAACTGCTTC	1.05
AAACTGTCAT	0.991
AAACTTACCG	1.14
AAACTTGAGA	1.01
AAACTTGCGG	1.05
AAAGAGAGG	1.09
AAAGATATA	0.942
AAAGATATGC	1.08
AAAGATCGG	1.02
AAAGCAAGGA	1.35
AAAGCATTAT	1.11

Sequence	switch fluorescence ratio
AAAGCCATTC	1.04
AAAGCCCCGC	1.01
AAAGCCGCTT	1.08
AAAGCGCGCC	0.995
AAAGCGGTGT	0.959
AAAGCGTCAA	1.08
AAAGCTGACA	0.972
AAAGCTGAGC	0.958
AAAGGCAAAT	1
AAAGGCGCTT	1.02
AAAGGCGGAG	0.968
AAAGGGAGCT	1.04
AAAGGGCATT	1.03
AAAGGGTCAA	0.966
AAAGGGTGAC	0.962
AAAGGTTAT	0.983
AAAGGTTGTA	0.98
AAAGGTTTCT	1.12
AAAGTAAACG	0.998
AAAGTACCGA	1.14
AAAGTCGGAG	0.95
AAAGTCGGCT	1.07
AAAGTCGTGG	0.991
AAAGTGCCGG	1.06
AAAGTGGAAA	0.975
AAAGTGGTTT	1.03

Sequence	switch fluorescence ratio
AAAGTGTGCA	0.937
AAAGTTACGC	0.97
AAAGTTAGT	1.01
AAAGTTAGTA	0.998
AAAGTTCGAC	1.02
AAAGTTGACG	1.02
AAAGTTGCAC	1.02
AAAGTTGTG	0.931
AAAGTTGTGC	1.03
AAAGTTTAAT	0.954
AAATAAAATC	1.11
AAATAACGGG	1.01
AAATAATTAA	1.04
AAATACATCA	0.996
AAATACCAT	0.996
AAATACCGCT	1.33
AAATAGCGTT	1.03
AAATATAAAT	0.983
AAATATTCCA	1.06
AAATATTGCC	0.988
AAATATTGTA	0.996
AAATCATTTC	1.03
AAATCCAATC	1.04
AAATCCGTG	1
AAATCTATTG	1.01
AAATGAGTCC	0.992

Sequence	switch fluorescence ratio
AAATGCGCGC	1.01
AAATGGAAG	1.01
AAATGGGGCA	0.98
AAATGGGTCA	1.02
AAATGTGAAA	0.984
AAATGTGACT	0.997
AAATTAGGAG	0.956
AAATTGCGCG	0.959
AAATTGGAAT	0.977
AAATTTAAA	1.01
AACAAAACAC	1.15
AACAAAACT	0.979
AACAACTAGG	1.05
AACAACTATT	1.01
AACAAGTGCA	1.05
AACAATCTTC	0.991
AACAATTGAA	1.01
AACACCGCAG	1.62
AACACGGGGG	1
AACACTAGGA	1.05
AACAGCGTTG	0.997
AACAGGAGCC	0.972
AACAGGAGCG	0.946
AACAGGGTAG	1.03
AACAGGGTGC	1.08
AACAGTATCT	1.06

Sequence	switch fluorescence ratio
AACAGTCTT	1.02
AACATAATTT	0.968
AACATACTGG	1.37
AACATATACG	1.19
AACATCAACA	1.09
AACATCACCA	1.17
AACATCGTGC	1
AACATTGGGT	1.02
AACATTTGCC	1
AACCAAATAG	1.09
AACCAATATC	1.77
AACCACATG	1.05
AACCACCGCT	1.19
AACCACGGTG	1.92
AACCAGAA	0.997
AACCAGAGGT	0.999
AACCAGCATA	1.16
AACCAGGTAG	1.83
AACCATAATT	1.04
AACCCACTAG	1.34
AACCCATTTA	1
AACCCGAGAG	1.05
AACCCGTAAA	0.983
AACCGAAATC	2.11
AACCGACCC	2.81
AACCGCTGAA	1.13

Sequence	switch fluorescence ratio
AACCGGGCTT	1.02
AACCGGTTGA	1.01
AACCTAAG	1.02
AACCTATAAG	0.982
AACCTATGTA	1.02
AACCTTGCAC	2.14
AACCTTTTCG	1.06
AACGAACAGA	1.24
AACGAAGTCT	1.01
AACGAATAGA	1.01
AACGACGCGC	2.31
AACGAGCTTG	0.938
AACGAGTGGT	1.04
AACGAGTTAT	1.01
AACGAT	1.02
AACGATGTGT	0.988
AACGATTAGT	0.979
AACGATTCT	0.998
AACGCACTCG	1.47
